Test results from PubChem BioAssay AID1508624 (National Center for Advancing Translational Sciences (NCATS), 2021).
The whole screen tested about 48,000 compounds, of which about 120 (0.25%) were called active. Roughly 4% stayed inconclusive and do not appear here. Calls come from the whole dose curve; as a rule, active = well fitted activation curve with a large enough effect; inconclusive = small, poorly fitted or top-dose-only effect, or another doubt; inactive = no such curve, though single readings can be large or run the other way. The list shows a part of the results.

Assay: Primary qHTS for Identification of Small Molecule Activators of Huntingtin-Antisense Promoter Activity; note: nearly all actives have a fitted effect of over 55% in size
Settings: HEK293 HTT-AS promoter firefly luciferase reporter, 24 h; series mostly up to 57.5 µM; activity change, positive = activation: at the top concentration
Summary of the method: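 HEK293 Fluc reporter, 2,500 cells/well, 24 h pre-culture; cpds up to 57.5 uM final, 24 h 37 degrees C; Dual-Glo, 10 min RT; normalized vehicle = 0%, zero RLU = -100%.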

Activity change, positive = activation, inactive:
CCOC(=O)c1ccc2c(c1)N(Cc1cccc(OC)c1)C(=O)c1ccccc1S2(=O)=O -25.1%
CCOC(=O)c1c(-c2ccccc2)oc2ccc(NS(=O)(=O)c3ccc(OC)cc3)cc12 -31%
CC(C)(C)OC(=O)N1CCC(c2c(C(=O)NC3CCN(Cc4ccccc4)CC3)cnn2-c2cccc(F)c2)CC1 -10.2%
COc1ccccc1CNC(=O)CC1N=C2c3ccccc3N=C(SCC(=O)Nc3ccc(F)cc3)N2C1=O (stereo unspecified) -10.1%
Cc1oc2c(c1C(=O)Nc1cccc(Br)c1)C1=NCCN1C=N2 -16.8%
COc1cc(NC(=O)c2c(-c3ccc(C)cc3)nnc3ccccc23)cc(OC)c1OC 15.3%
O=C(Cn1nc(-c2ccccc2)ccc1=O)NCc1ccc(F)cc1Cl -4.07%
COc1ccccc1Nc1nn2c(=O)c3ccc(C(=O)N4CCC(C)CC4)cc3nc2s1 -44.6%
O=C(c1nc(-c2ccc(Cl)cc2)n2c1CCCCC2)N1CCN(c2ccccc2F)CC1 -20.7%
CC(=O)c1ccc(N2C(=O)N(Cc3cccc(C(F)(F)F)c3)c3ccccc3S2(=O)=O)cc1 -40.4%
Cc1ccc(CS(=O)(=O)c2cn(CC(=O)N(C)c3ccccc3)c3ccccc23)cc1 -39.6%
CC1=C(C(=O)OC2CCCC2)C(c2ccc(F)cc2F)CC(=O)N1 (stereo unspecified) -20.7%
CCOc1cc(C(=O)Nc2ccc3oc(-c4ccc(F)cc4Cl)nc3c2)cc(OCC)c1OCC 1.07%
COc1ccc(N(Cc2cccs2)C(=O)c2ccccc2C)cc1 -41.7%
Cc1ccc(NC(=O)c2cc(C)nn2-c2ccccc2)cc1 -2.29%
COc1ccc(C)cc1NCc1nnc2n1CCCCC2 -13.7%
O=C(CCCCn1c(=O)c2ccccc2n(Cc2ccc(Cl)cc2)c1=O)NCc1ccccc1Cl -54.4%
Cc1cc(OC(C)C(=O)N(Cc2ccco2)Cc2ccccc2F)cc(C)c1Cl (stereo unspecified) -35.7%
Cc1ccc(CCNC(=O)C2CCN(c3nnc(C)c4c(C)n(-c5ccccc5)nc34)CC2)cc1 -12.5%
COc1ccc(-c2cc(C(=O)Oc3cccc(C)c3)c3ccccc3n2)cc1 11.2%
COc1ccc(NC(=O)C2CCCN(C(=O)c3cnn(-c4ccc(F)cc4)c3-n3cccc3)C2)cc1 (stereo unspecified) -10.6%
COc1ccc(NC(=O)CSc2nc3ncccc3[nH]2)c(OC)c1 -10.9%
Cn1c(=O)cc(OCC(=O)N2CCN(c3ccccc3)CC2)c2ccccc21 -3.9%
Cc1ccc(NC(=O)CSCc2cnn(-c3ccccc3)c2-n2cccc2)c(C)c1 -39.6%
CCOc1cccc2sc(N(Cc3cccnc3)C(=O)C3CCCCC3)nc12 -21.3%
Cc1ccc(NC(=O)CSc2nc3ccccc3c3nc(CCn4cncc4C)nn23)cc1F -16.6%
CCc1ccccc1NC(=O)c1ccc(F)c(S(=O)(=O)NC2CCCCCC2)c1 -18.5%
Cc1ccc(C)c(N2CCN(CCCNC(=O)C3COc4ccccc4C3)CC2)c1 (stereo unspecified) -29%
CN1CCN(C(c2ccccc2Cl)c2sc3nc(-c4ccco4)nn3c2O)CC1 (stereo unspecified) -10.6%
CCC(=O)N1CCc2cc(Br)cc(S(=O)(=O)N3CCN(c4ccc(C(C)=O)cc4)CC3)c21 -3.87%
CC1CCN(c2ccc(NC(=O)c3cccc(Cl)c3)cc2C(=O)O)CC1 6.32%
CCCS(=O)(=O)c1ncc(Cl)c(C(=O)N2CCN(c3ccc(OC)cc3)CC2)n1 -94.7%
CN(C)Cc1cccc(N=C(c2ccccc2)c2c(O)[nH]c3cc(C(=O)N(C)C)ccc23)c1 -23.5%
Cc1ccc2ncc(C(=O)NCc3ccccc3Cl)c(=O)n2c1 7.79%
CC(=O)Nc1ccccc1-c1nc2ccccc2n(CC(=O)c2ccc(C)c(C)c2)c1=O -13.3%
CCC(CC)C(=O)Nc1ccc(OCc2cc(=O)n3ccsc3n2)cc1 12%
Cc1nc(N2CCCC2)c2c(C(=O)Nc3ccc(C)c(Cl)c3)c(C)oc2n1 1.32%
CCOc1ccccc1C1N=C(N)Nc2nc3ccccc3n21 (stereo unspecified) -13.3%
CCOC(=O)c1c(S(=O)(=O)N2CCC(C(=O)N3CCN(c4cccc(C)c4C)CC3)CC2)c(C)n(C)c1C -13.7%
CCC(CC)C(=O)Nc1cc(-c2cn3cccnc3n2)ccc1OC -15.1%
Cc1ccccc1-c1nnc(CN2CCN(c3cc(Cl)ccc3C)CC2)o1 -8.74%
COC(=O)c1c(C)oc2ccc(N(C(=O)c3ccncc3)S(=O)(=O)c3cc(C)c(C)cc3C)cc12 -59.8%
COc1ccc(C(CC(=O)Nc2ccc(C)cn2)N2Cc3ccccc3C2=O)cc1OC (stereo unspecified) -22.6%
CCOC(=O)N1CCC(NC(=O)c2ccc3c(c2)N(Cc2cccc(C)c2)C(=O)c2ccccc2S3(=O)=O)CC1 -34%
COc1ccc(-n2nc(C(=O)NCCc3ccc(Cl)cc3)c3c4ccccc4n(C)c3c2=O)cc1Cl -3.31%
O=C(Cn1c(=O)n(Cc2ccco2)c(=O)c2ccc(C(=O)NC3CCCC3)cc21)Nc1ccc(F)cc1 -20.9%
Cc1cc(C)n(CC(=O)Nc2ccc(F)c(F)c2)c(=O)c1C#N -8.57%
N#C/C(=C\c1ccc(-c2ccccc2C(=O)O)o1)c1nc2ccccc2[nH]1 -53.7%
CC(C)C[C@@H](N)[C@H](O)C(=O)N[C@H](C(=O)N[C@H](C(=O)N[C@@H](CC(=O)O)C(=O)O)C(C)C)C(C)C -11%
Cc1cc(-c2ccc(C)c(S(=O)(=O)N3CCCC(C)C3)c2)on1 (stereo unspecified) -30.8%
O=C(Cn1nc2c(cc1=O)CCCC2)Nc1ccc(F)cc1F -0.746%
COc1ccc(CCNC(=O)c2c(O)nc3cc(C)ccn3c2=O)cc1OC -11.1%
O=S(=O)(Nc1cccc(Cl)c1)c1ccc2[nH]c3c(c2c1)CCCCCC3 -37.3%
CCc1ccc(CNC(=O)c2ccc(CSc3nc4ccncc4n3Cc3ccc(OC)cc3)cc2)cc1 -26.2%
COc1ccc(N2CCN(C(=O)Cc3coc4ccc(C)cc34)CC2)cc1 0.641%
COc1ccc(C)cc1NC(=O)C(=O)NCCc1sc(-c2ccc(Cl)cc2)nc1C 2.94%
CCc1noc(-c2ccc(NC(C)c3ccccc3)c([N+](=O)[O-])c2)n1 (stereo unspecified) -15.9%
CCN(CC)C(=O)C1=C(C)Nc2nc3ccccc3n2C1c1ccc(Br)cc1 (stereo unspecified) -6.09%
CC(=O)c1cccc(NC(=O)CCS(=O)(=O)c2cc3c(cc2C)NC(=O)CO3)c1 -4.93%
CCOC(=O)c1c(NC(C)=O)c2c3c(sc2n1Cc1nc(-c2ccc(Cl)cc2)oc1C)CCCC3 1.23%
Cc1ccc2nc(/C(C#N)=C/c3cccc(Br)c3)[nH]c2c1 4.55%
O=C(Cc1csc2ccccc12)NCc1cccc(Br)c1 8.78%
CN(C)S(=O)(=O)n1cc(/C=C(\NC(=O)c2ccccc2F)C(=O)NCCCn2ccnc2)c2ccccc21 -4.85%
OC(c1cc(C(F)(F)F)nc2c(C(F)(F)F)cccc12)C1CCCCN1 (stereo unspecified) -16%
Cc1ccccc1CN1CCC(CNc2ncnc3onc(-c4ccc(Cl)cc4)c23)CC1 -16%
Cc1ccc(NC(=O)C2CCCN(c3ncnc4c3nc3n4CCCCC3)C2)cc1F (stereo unspecified) -27.9%
CCOc1ccc(NC(=O)c2c(NC(=O)c3ccco3)sc3c2CCC(C(C)(C)C)C3)cc1 (stereo unspecified) -2.75%
Cc1nc2cccnc2n1-c1cccc(C(=O)NCc2ccc(OC(C)C)cc2)c1 -28.2%
O=C(O)CC(NS(=O)(=O)c1ccc(Cl)s1)c1ccccc1 (stereo unspecified) -11.2%
O=C(Nc1cccc(C(F)(F)F)c1)C1CCN(c2nnc(-n3cccc3)s2)CC1 -4.09%
COc1cc(NS(=O)(=O)c2ccc(NC(=O)C(C)Oc3ccc(Cl)cc3Cl)cc2)nc(OC)n1 (stereo unspecified) -19.3%
COc1ccc(Nc2c(-c3ccc(Cl)cc3)nc3cnccn23)cc1OC -23.3%
CCC12CN3CC(C)(CN(C1)C3c1ccc(O)cc1O)C2=O (stereo unspecified) 1.91%
O=C(NCc1ccccc1Cl)C1CCN(S(=O)(=O)c2ccc3c(c2)CCCN3C(=O)C2CCC2)CC1 -19%
Cc1cc(C)cc(Oc2coc3c(CN4CCN(C)CC4)c(O)ccc3c2=O)c1 12.5% [at 11.5 µM, percent change from vehicle, -100% = no light]
COc1cccc(CNC(=O)c2nnn(CC(=O)Nc3cc(Cl)ccc3C)c2N)c1 -7.09%
O=S(=O)(c1ccc(F)cc1)N1CCC(Oc2ccc(-n3cnnn3)cc2)CC1 -18.9%
Cc1ccc(Nc2cc(C)nc3nc(Cc4ccc(Cl)cc4)nn23)cc1 -32.3%
COc1cccc(CNC(=O)Cn2c(=O)oc3cc(S(=O)(=O)N4CCCC4)ccc32)c1 -29.5%
Cc1ccc(-c2ccc(=O)n(Cc3ccc(F)cc3)n2)cc1 -18.8%
CCC(=O)N1CCc2cc(Br)cc(S(=O)(=O)CCC(=O)Nc3cccc(CC)c3)c21 2.79%
CC(NC(=O)C1(c2cccs2)CCOCC1)c1ccccc1 (stereo unspecified) -12.2%
CCn1cc(C(=O)N2CCN(c3cc(Cl)ccc3C)CC2)c2cc(OC)c(OC)cc2c1=O -5.06%
CCCN(CCC)CCCNC(=O)c1cc2c(=O)oc3ccc(C)cc3c2s1 -5.25%
CCOc1ccc(CCNC(=O)CCCc2cc(-c3ccc(OCC)cc3)on2)cc1 -77.5%
CCn1cc(S(=O)(=O)c2ccc(OC)cc2)c(=O)c2cc(F)c(N3CCC(C)CC3)cc21 -5.54%
CNCCCC12CCC(c3ccccc31)c1ccccc12
CCCN(CCC)CCCNC(=O)C1CCC(CNS(=O)(=O)c2cccc3nsnc23)CC1 (stereo unspecified) 11.7%
Cc1ccc(CN(Cc2ccco2)C(=O)COc2c(C)cc(C)cc2C)cc1 -39.6%
Oc1ccc(-c2nc3ccccn3c2Nc2ccc3c(c2)OCCO3)cc1 18.7%
CCCCNS(=O)(=O)c1ccc2nc(-c3cccnc3)cc(C(=O)NCCC)c2c1 -18.3%
CC(=CC(=O)Nc1ccccc1C(=O)O)c1ccc2ccccc2c1 -0.3%
COCCNC(=O)CSc1c2c(nc3cc(Cl)ccc13)CCCC2 -21.3%
NCCCCCc1nnc(SCc2ccc(F)cc2)o1 -27.5%
NCCNc1cccc2ccccc12 -15.7%
COCCCNC(=O)c1ccc2nc(Cc3ccc(OC)cc3)oc2c1 -3.47%
